# Test results: the supplement of paper PMC7826260
# This is one part of the list. Cleavage of a single-stranded DNA pool by Rep nickase domains was read by sequencing for 1 h at 37 °C with 3 µM enzyme; only the middle of the 90-letter strands is printed. A value is the log2 ratio of uncut reads to the pool without enzyme; the lower, the more was cut; hits are not called. Reads are scaled to the total, so uncut sequences can rise above 0 when many others are cut.
# How the values were obtained:
# Test in all cases: uncleaved DNA left, log2 of reads against the no-enzyme library (log2 ratio); higher = less cleavage (more negative = more Rep cleavage of the k-mer); sequences stand for … in CTCGTCCG…ACCGGAGA
# [1] = test system: T1, Rep nickase domain of Muscovy duck circovirus
# T1 sequence (protein, residues 1-111, tag omitted): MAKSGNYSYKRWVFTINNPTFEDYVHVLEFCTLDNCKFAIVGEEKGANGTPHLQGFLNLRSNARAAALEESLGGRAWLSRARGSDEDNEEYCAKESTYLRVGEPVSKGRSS
# Description: (§1)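 A pool of 90-nt single-stranded DNAs with seven random bases just before the constant AC of the nick site (name = the seven bases) was cut by 3 µM recombinant His6-SUMO-tagged Rep nickase domain (300 nM DNA, 50 mM HEPES pH 8.0, 50 mM NaCl, 1 mM MnCl2, 1 h, 37 °C, three replicates). Uncut DNA was amplified and sequenced.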
# [2] = test system: T2, Rep nickase domain of banana bunchy top virus
# T2 sequence (protein, residues 1-94, tag omitted): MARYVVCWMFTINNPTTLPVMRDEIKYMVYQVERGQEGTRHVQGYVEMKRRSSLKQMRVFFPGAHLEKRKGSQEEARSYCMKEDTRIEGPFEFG
# Description: as §1
# [3] = test system: T3, Rep nickase domain of cabbage leaf curl virus
# T3 sequence (protein, residues 1-116, tag omitted): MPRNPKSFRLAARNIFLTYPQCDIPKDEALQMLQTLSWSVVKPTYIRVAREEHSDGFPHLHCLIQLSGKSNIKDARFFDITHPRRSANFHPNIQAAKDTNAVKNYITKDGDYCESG
# Description: as §1
# [4] = test system: T4, Rep nickase domain of chickpea chlorotic dwarf virus
# T4 sequence (protein, residues 1-124, tag omitted): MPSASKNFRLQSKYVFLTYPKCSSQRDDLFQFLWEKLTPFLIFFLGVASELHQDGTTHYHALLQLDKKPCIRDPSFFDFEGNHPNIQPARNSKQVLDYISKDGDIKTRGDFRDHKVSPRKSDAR
# Description: as §1
# [5] = test system: T5, Rep nickase domain of faba bean necrotic yellows virus
# T5 sequence (protein, residues 1-98, tag omitted): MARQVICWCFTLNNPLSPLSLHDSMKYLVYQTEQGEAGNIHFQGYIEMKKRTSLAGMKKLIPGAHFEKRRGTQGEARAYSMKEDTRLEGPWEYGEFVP
# Description: as §1
# [6] = test system: T6, Rep nickase domain of maize striate mosaic virus
# T6 sequence (protein, residues 1-117, tag omitted): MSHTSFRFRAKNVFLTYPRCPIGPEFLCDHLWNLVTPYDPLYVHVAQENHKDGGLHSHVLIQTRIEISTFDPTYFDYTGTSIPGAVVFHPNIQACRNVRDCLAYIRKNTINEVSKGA
# Description: as §1
# [7] = test system: T7, Rep nickase domain of porcine circovirus 2
# T7 sequence (protein, residues 2-116, tag omitted): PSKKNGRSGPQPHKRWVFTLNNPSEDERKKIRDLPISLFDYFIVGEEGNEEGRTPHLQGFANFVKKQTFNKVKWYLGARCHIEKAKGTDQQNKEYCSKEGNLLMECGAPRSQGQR
# Description: as §1
# [8] = test system: T8, Rep nickase domain of tomato yellow leaf curl virus
# T8 sequence (protein, residues 1-136, tag omitted): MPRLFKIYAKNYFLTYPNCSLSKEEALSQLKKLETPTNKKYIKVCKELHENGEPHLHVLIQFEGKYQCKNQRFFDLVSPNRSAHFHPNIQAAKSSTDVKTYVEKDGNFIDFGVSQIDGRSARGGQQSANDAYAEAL
# Description: as §1
# [9] = test system: T9, Rep nickase domain of wheat dwarf virus
# T9 sequence (protein, residues 1-137, tag omitted): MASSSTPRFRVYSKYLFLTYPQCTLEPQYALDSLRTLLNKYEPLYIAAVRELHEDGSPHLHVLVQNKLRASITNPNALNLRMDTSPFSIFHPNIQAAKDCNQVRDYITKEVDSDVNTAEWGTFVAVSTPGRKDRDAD
# Description: as §1
Sequence,uncleaved DNA left (log2) [1],uncleaved DNA left (log2) [2],uncleaved DNA left (log2) [3],uncleaved DNA left (log2) [4],uncleaved DNA left (log2) [5],uncleaved DNA left (log2) [6],uncleaved DNA left (log2) [7],uncleaved DNA left (log2) [8],uncleaved DNA left (log2) [9]
TACTAGC,0.0995,-0.0669,-0.598,-0.821,0.0203,-1.19,-0.0367,0.0965,0.0356
ACTTTGG,0.106,0.0469,-0.589,-0.472,0.118,-1.17,0.281,0.117,0.12
TATAGAG,0.105,0.0061,-0.463,-0.561,0.192,-0.941,0.12,0.0538,0.12
AGGTTGT,-0.0196,0.0453,0.0675,0.262,0.0089,0.362,-0.821,0.0201,0.0418
CGTTAGG,0.108,0.0301,0.0554,0.736,0.0282,0.368,0.155,-0.0789,0.11
AAGCATA,0.0188,0.00629,-0.172,-1.4,0.0468,-0.0393,-0.689,-0.139,0.107
TCGTGGA,0.0541,-0.126,0.176,0.027,-0.0836,-0.261,-0.219,-0.117,-0.0372
TTCGATG,0.161,-0.0704,-0.0312,0.144,0.156,-0.0629,0.137,-0.0653,0.0315
CGACCAA,-0.0317,0.00573,0.0658,0.366,-0.0167,0.311,-0.0564,0.000265,0.12
CCGAGTA,-0.0382,-0.0224,0.429,0.561,0.0285,0.764,-0.113,0.0123,0.125
CGTTAGT,-1.61,-0.0354,0.0942,-0.395,0.0951,-0.68,-2.77,0.0635,0.0802
GCAACGA,0.0639,-0.0335,-0.0275,0.0178,0.0146,-0.583,0.108,0.0159,0.0126
CGTTTTC,0.0148,-0.0683,0.0686,-0.0137,-0.0354,-0.418,-0.0239,-0.038,-0.0416
ACCTGGC,-0.00112,0.0165,-0.448,-0.428,0.0165,-1.05,0.137,0.0876,-0.09
GCAGCGG,0.11,-0.0513,-0.134,0.129,-0.0206,-0.174,0.221,-0.0159,-0.093
TCGACAA,0.0755,-0.0604,0.125,0.597,-0.062,0.834,0.0739,0.0279,0.173
CTCCTCT,0.00957,0.0907,-0.105,-1.96,-0.0327,-0.416,-0.147,-0.0261,0.0736
TGTAGGG,0.114,0.116,0.255,0.526,0.0234,0.102,0.172,-0.00892,-0.0813
GCCTCAA,-0.0128,0.0773,0.0729,0.367,-0.0674,0.173,0.0262,0.00699,-0.0361
ACCAGGA,0.0359,0.162,0.205,0.566,0.0673,-0.451,0.179,0.0906,0.0818
TTGTTCT,-2.04,-0.184,-0.0194,-1.71,-0.159,-0.519,-3.16,-0.0638,-0.0852
GCCAGAC,-0.171,-0.122,0.298,0.876,-0.0815,0.634,0.0478,-0.0652,-0.0236
GCGGAAG,0.076,-0.0814,-0.246,0.213,0.00599,-0.389,0.0913,0.0355,-0.00285
TCAACTC,-0.102,-0.122,-0.0662,-1.26,-0.122,-0.377,-0.154,-0.0878,-0.0819
AAGAGTG,-0.0125,0.081,-0.11,0.169,0.0954,0.248,0.142,-0.0614,-0.00205
CTATTCT,-2.91,-0.0888,-1.38,-2.34,-0.039,-1.26,-2.94,0.0261,-0.261
TCTACCC,-0.275,-0.168,-0.0857,-2.25,-0.186,-0.319,-1.21,-0.106,-0.118
GTCAGAT,0.0826,-0.0335,0.319,0.908,0.00498,1.67,0.182,0.0827,0.0864
TCCAGGA,-0.0138,-0.0745,0.137,0.434,0.0417,-0.0837,0.146,-0.0112,-0.014
AGCCGTT,-0.035,-0.125,0.168,-0.137,-0.00619,0.152,-0.182,-0.0895,-0.133
